This experiment concerns the target MDM2 NTD polypeptide (residues 10–139) (UniProt Q00987 10-139). Nature of the experiment: ITC. Background: In ITC the heat of successive injections is recorded.
Chain of UniProt Q00987 (Q00987 10-139): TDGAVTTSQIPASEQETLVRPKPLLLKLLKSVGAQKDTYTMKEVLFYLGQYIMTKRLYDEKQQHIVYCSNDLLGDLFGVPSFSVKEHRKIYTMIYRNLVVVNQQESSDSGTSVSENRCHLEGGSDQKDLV

B1: mutant p53 CTD_([…]/L344A) (domain or fragment)
chain: not shown
The term Kd denotes a measure of binding affinity in units of concentration. B1 came in with a Kd of 1700 nM.
